Laboratory results taken from paper PMC4336329 (PLoS ONE, 2015).
Out of some 310,000 compounds screened, about 2,200 (0.71%) showed an effect of 50% or more. Effects have a minus sign here. The list shows a part of the results.

target: human ether-à-go-go-related gene (hERG) potassium channel (human, UniProt Q12809); experiment: primary screen, population patch clamp on CHO cells stably expressing hERG
Sequence (Q12809 whole entry, looked up): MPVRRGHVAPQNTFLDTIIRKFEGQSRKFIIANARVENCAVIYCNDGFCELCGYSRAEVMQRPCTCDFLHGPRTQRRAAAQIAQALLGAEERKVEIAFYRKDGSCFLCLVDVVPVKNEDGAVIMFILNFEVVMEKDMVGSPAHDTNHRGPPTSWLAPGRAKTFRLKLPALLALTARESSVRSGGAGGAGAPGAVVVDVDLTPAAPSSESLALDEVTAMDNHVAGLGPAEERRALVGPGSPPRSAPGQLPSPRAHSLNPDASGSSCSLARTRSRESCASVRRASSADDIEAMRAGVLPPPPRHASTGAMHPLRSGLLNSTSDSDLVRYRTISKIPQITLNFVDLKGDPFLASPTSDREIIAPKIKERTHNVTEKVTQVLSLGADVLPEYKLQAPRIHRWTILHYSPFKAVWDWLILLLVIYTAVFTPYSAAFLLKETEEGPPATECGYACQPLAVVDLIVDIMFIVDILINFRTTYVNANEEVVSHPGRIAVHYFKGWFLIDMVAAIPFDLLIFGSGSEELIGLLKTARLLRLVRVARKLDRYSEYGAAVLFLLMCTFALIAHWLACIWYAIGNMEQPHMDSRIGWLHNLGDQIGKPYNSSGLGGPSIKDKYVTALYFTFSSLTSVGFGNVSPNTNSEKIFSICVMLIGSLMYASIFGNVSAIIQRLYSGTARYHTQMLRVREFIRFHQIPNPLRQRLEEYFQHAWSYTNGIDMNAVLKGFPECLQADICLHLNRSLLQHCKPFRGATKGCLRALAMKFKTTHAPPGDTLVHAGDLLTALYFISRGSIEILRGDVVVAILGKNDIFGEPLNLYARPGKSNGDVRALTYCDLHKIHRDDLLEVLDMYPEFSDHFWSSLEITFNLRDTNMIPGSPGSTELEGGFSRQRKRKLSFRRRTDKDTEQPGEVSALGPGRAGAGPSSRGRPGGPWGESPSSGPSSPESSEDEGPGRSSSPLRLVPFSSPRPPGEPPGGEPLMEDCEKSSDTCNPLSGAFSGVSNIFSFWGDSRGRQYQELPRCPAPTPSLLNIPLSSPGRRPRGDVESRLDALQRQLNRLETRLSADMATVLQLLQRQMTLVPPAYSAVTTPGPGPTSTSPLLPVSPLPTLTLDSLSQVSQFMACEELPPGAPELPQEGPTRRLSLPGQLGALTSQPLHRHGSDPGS

| SMILES | hERG current change (%, negative = inhibition) at 1uM [%] |
| --- | --- |
| CS(=O)(=O)Nc1ccc(C2=NN(C(=O)c3ccco3)C(c3ccccc3F)C2)cc1 (stereo not shown) | -19.6 |
| O=C(O)c1c(C(=O)O)c(-c2ccc(F)cc2)n2c1CCC2 | 8.62 |
| CCOC(=O)N1CCN(C(=O)c2cn(CC)c3cc(N4CCN(C)CC4)c(F)cc3c2=O)CC1.Cl | 9.26 |
| Nc1ccc(S(=O)(=O)NC2(C(F)(F)F)NC(=O)N(c3ccccc3Cl)C2=O)cc1 (stereo not shown) | 0.243 |
| O=S(=O)(c1cccc(S(=O)(=O)N2CCCC2)c1)N1CCCCC1 | 3.43 |
| O=S1(=O)CC2N=C(N(Cc3ccc(F)cc3Cl)c3ccccc3F)SC2C1 (stereo not shown) | 5.72 |
| O=C(CNCCc1ccc(F)cc1)Nc1cc(F)ccc1F.O=C(O)C(=O)O | 3.26 |
| Cc1ccc2c(c1)C(=NC1CCCCC1)c1cc3ccccc3nc1-2 | 12.1 |
| Cc1ccccc1C(=O)Nc1cccc(-c2ccc(N3CCOCC3)nn2)c1 | 6.31 |
| CN(C)CCNC(=O)Cn1ccc2cc(S(=O)(=O)N3CCCCC3)ccc21 | 26.4 |
| O=C1C(C=NCCCn2ccnc2)=C(O)c2ccccc21 | -1.07 |
| O=C(CCc1nnc(C2CCCCC2)o1)N1CCCCC1CCn1cccn1 (stereo not shown) | 3.26 |
| COc1ccc(S(=O)(=O)Nc2ccccc2OC)cc1C | 22 |
| CCN(CCS(=O)(=O)c1ccc(Cl)cc1)C(=O)Nc1ccccc1 | 11 |
| O=C(Nc1ccc(Cl)cc1)c1csc(-c2ccccc2)n1 | 7.08 |
| Cc1cc(NC(=O)CSCC(=O)N(c2cccc(Cl)c2)C(C(=O)NC2CCCCC2)c2ccc(O)c(O)c2)no1 (stereo not shown) | 10.7 |
| COc1cc2c(cc1OC)C(C(=O)Nc1ccccc1N1CCN(C)CC1)C1c3ccccc3CCN1C2=O (stereo not shown) | 4.41 |
| Cc1c(N(C(=O)CNC(=O)c2ccccc2)C2(C(=O)NC3CCCCC3)CCCCC2)c(=O)n(-c2ccccc2)n1C | 14.6 |
| COc1ccc(NC(=O)c2cc(S(=O)(=O)N3CCCCC3)c[nH]2)c(OC)c1 | 8.48 |
| COc1ccc(-n2c(N)c(C#N)c3ccc([N+](=O)[O-])cc3c2=O)cc1 | 5.85 |
| CCCc1c(C)c2ccccc2[nH]c1=O | 7.27 |
| CC(=O)/C=C(/C)NC(Cc1c[nH]c2ccccc12)C(=O)O (stereo not shown) [14727836] | 0.188 |

| SMILES | hERG current change (%, negative = inhibition) at 1uM [%] |
| --- | --- |
| NCCCC[C@H]1CNC(=O)C(=O)N1CCc1cc(C(F)(F)F)cc(C(F)(F)F)c1 | 11.4 |
| Cc1ccc(-c2nc(N)sc2CC(=O)OCC(=O)NCC2CCCO2)cc1 (stereo not shown) | 7.16 |
| N#C/C(=C\c1ccccc1Cl)C(=O)Nc1ccccn1 | 15 |
| CCN(CC(=O)Nc1c(F)cccc1F)C(=O)CCCOc1ccc(OC)cc1 | 1.6 |
| CCC(=O)Nc1nnc(-c2ccccn2)o1 | 0.0215 |
| CCN(CC)C(=S)SCC(=O)Nc1nc(-c2ccccc2)c(-c2ccccc2)o1 | 11 |
| C[C@]12CC[C@H]3[C@@H](CCC4=CC(=O)CC[C@@]43C)[C@@H]1CC[C@@H]2C(=O)CO | 6.52 |
| O=P(O)(CCCP(=O)(O)CCc1ccccc1)CCc1ccccc1 | 3.04 |
| CCC(C)NC(=O)Nc1ccc(Br)cc1Cl (stereo not shown) | 4.69 |
| C[C@@H](NC(=O)[C@@H]1Cc2ccccc2CN1)C(=O)Nc1ccc2c(c1)OCCO2 | 5.96 |
| Cc1ccc(-n2ncc3c(NCCCN4CCCC4=O)ncnc32)c(C)c1 | 11.7 |
| Nc1nc(OCC(F)(F)F)cc(Oc2ccccc2F)n1 | -3.6 |
| COc1cccc(-c2noc(CCC(=O)NC3CCCC3)n2)c1 | 9.98 |
| Cc1cc(C(=O)N/N=C/c2ccc(-c3ccc([N+](=O)[O-])cc3Cl)o2)n[nH]1 | 13.8 |
| CC1Cc2nc(SCC(=O)N3CCCc4ccccc43)n(C)c(=O)c2S1 (stereo not shown) | 1.64 |
| O=C1C=CC2C(c3ccc4c(c3)OCO4)CC1N2Cc1ccccc1 (stereo not shown) | 10.2 |
| Oc1ccc(C[C@@H]2CNCCN2CCc2cccc3ccccc23)cc1 | -31 |
| O=C(O)C1CCCCC1C(=O)NCCCCc1ccccc1 (stereo not shown) | -6.23 |
| Cc1ccc(CNC(=O)CSc2ncccn2)cc1 | 7.13 |
| O=C(NCCNCCO)C1(C(F)(F)F)C/C(=C\CCO)CCCO1 (stereo not shown) | 1.05 |
| CCOC(=O)C1=CCN(Cc2ccccc2)CC1.Cl | 14.6 |
